# Measurements: the RNAGym collection of RNA variant scans (doi:10.1093/nar/gkz1192)
# The source gives no read counts; variants with many changes may rest on few reads.
# B1: CPEB3 Ribozyme (parent)
# chain: UAACAGGGGGCCACAGCAGAAGCGUUCACGUCGCAGCCCCUGUCAGAUUCUGGUGAAUCUGCGAAUUCUGCUGUAUAUCUC
# Variants of: B1
# Assay: self-cleavage, relative activity (ratio to wild type); higher = more cleavage; in vitro, sequencing
# How it was run: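 For each CPEB3 ribozyme variant, relative activity is its cleaved/total read fraction divided by the unmutated ribozyme's. Barcoded error-prone PCR libraries were transcribed by T7 RNA polymerase (5 hours, 37°C) and held in DNase I for 15 min before an EDTA stop, with cleavage occurring throughout. Template-switching reverse transcription and Illumina sequencing were used to read the RNAs. A 5-read minimum applied, and results are the mean of three batches.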
row,Variant,self-cleavage
1,UAACAGGGGGCCACAGCAGAUGCGUUCACGUCGCAGCCCCUCUCAGAUUCUGGUGAAUCUGCGAAUUCUGCCGUAUACCUC [A21U G42C U72C U78C],0.12
2,UAACAGGGGGCCACAGCAGAUGCGUUCACGUCGCAGCCCCUGUCAGAUUCUGGUGAAUCUGCGAUUUCUGCCGUAUAUCUC [A21U A65U U72C],0.24
3,UAACAGGGGGCCACAGCAGAUGCGCUCACGUCGCAGCCACUGUCAGAUUCUGGUGAAUCUAUGAAUUCUGCUGUAUAUCAC [A21U U25C C39A G61A C62U U80A],0.09
4,UAACAGGGGGCCACAGCAGAUGCGGUCACGACGCAGCCCCAGUCAGUUUCUGGUGAAUCUGCGAAUUCUGCUGAAUAUCUC [A21U U25G U31A U41A A47U U74A],0.08
5,UAACAGGGGGCCACAGCAGAUGCGUUCACGUCGCAGCCCCUGUCAGAUUCUGGUGAAUCUGCGUAUUCUGCUGUAUACCUC [A21U A64U U78C],0.08
6,UAACAGGGGGCCACAGCAGAUGCGUUCACGUCGCAGUCCCUGUCAGAUUCUGGGGAAUCUGCGAAUUCAGCCGUAUAUCUC [A21U C37U U54G U69A U72C],0.19
7,UAACAGGGGGCCACAGCAGAUGCAUUCACGUCGCAGCCCCUGUCAGAUUCUGGAGAAUCUGCGAAUUCUGCUGUAUAUCUC [A21U G24A U54A],0.11
8,UAACAGGGGGCCACAGCAGAUGCGUUCACGUCGCAGCACCUGUCAGAUUCUGGUGGAUCUGCGAAUUCUGCUGUAUAUCUC [A21U C38A A56G],0.08
9,UAACAGGGGGCCACAGCAGAUGCGUUCACGUCGCAGCCCCUGUCAGAUUCUGGUGGAUCUGCGAAUUCCGCUGUAUAUCUC [A21U A56G U69C],0.1
10,UAACAGGGGGCCACAGCAGAUGCGUUCACGUCGCAGCCCCUGUCAGGUUCUGGUGGAUCUGCGAAUUCUGCAGUAUAUCUC [A21U A47G A56G U72A],0.09
11,UAACAGGGGGCCACAGCAGAUGCGCUCACGUCGCAGCCCCUGUCAGAUUCUGGUGAAUCUGCGAUUUCUGCUGUAUAUCUC [A21U U25C A65U],0.27
12,UAACAGGGGGCCACAGCAGAUGCGUUUACGUCGCUGCCCCUGUCAGAUUCUGGUGAAUCUGCGAAUUCUGCUGUAUAUCUC [A21U C27U A35U],0.14
13,UAACAGGGGGCCACAGCAGAUGCGCUCGCGUCGCAGUCCCCGUCAGAUCCUGGUGAAUCUGCGGAUUCUGCUGUAUAUCUC [A21U U25C A28G C37U U41C U49C A64G],0.05
14,UAACAGGGGGCCACAGCAGAUGAGCUCACGUCGCAGCCCCUGCCGGAUUCUGGUGCAUCUGCGAAUUCUGCUGUAUAUCUC [A21U C23A U25C U43C A45G A56C],0.11
15,UAACAGGGGGCCACAGCAGAUGCGUUCACGUCGGAGCCCCUGUCUGAUUCUGGUGAAUCCGCGAAUUCUGCUGUAUAUCUC [A21U C34G A45U U60C],0.1
16,UAACAGGGGGCCACAGCAGAUGCGUACACGUCGCAGCCCCUGUCAGAUUCCGGUGAAUCUGCGAAUUCUGCUGCAUACCUC [A21U U26A U51C U74C U78C],0.5
17,UAACAGGGGGCCACAGCAGAUUCGCUCACGUCGCAGCCCCAGUCAGAUUCUGGUGAAUCUGCGAAUUCUGCUGUAUAUCUC [A21U G22U U25C U41A],0.17

row,Variant,self-cleavage
1,UAACAGGGGGCCACAGCAGAUGCGUUCACGUCGCAGCCCCUGUCAGAUUCUGGUGAUUCUGCGAAUUCUGCUGCAUAUCUC [A21U A57U U74C],0.14
2,UAACAGGGGGCCACAGCAGAUGCGUUCACGUCGCAGCCCCUGUCAGGUUCUGGUGAAUCUGCGAAUUCUGCUGUAUAUCCC [A21U A47G U80C],0.38
3,UAACAGGGGGCCACAGCAGAUGCGUACACGUCGCAGCCCCUGUCAGAUACUGGUGAAUCUGCGAAUUCUGCCGUAUAUCUC [A21U U26A U49A U72C],0.08
4,UAACAGGGGGCCACAGCAGAUGCGCUCACGUCGCAGCCCCUGUCAGAUUCUGGUGUAUCUGCGAAUUCUGCUGUAUACCUC [A21U U25C A56U U78C],0.04
5,UAACAGGGGGCCACAGCAGAUGCGUUCACGUUGCAGCCCCCGUCAGACUCUGGUGACUCUGCGAAUUCUGCUGUAUACCUC [A21U C32U U41C U48C A57C U78C],0.08
6,UAACAGGGGGCCACAGCAGAUGAGUUCACGUCGCAGCCCCUGUCAGAUUCUGGCGAAUCUGCGAAUUCUGCCGUAUAUCUC [A21U C23A U54C U72C],0.04
7,UAACAGGGGGCCACAGCAGAUGCGUUCACGUCGCAGCCCCUGUCAGAUUCUGGUGGAACUGCGAAUUCUGCCGUAUAUCUC [A21U A56G U58A U72C],0.12
8,UAACAGGGGGCCACAGCAGAUGCGUUCACGUCGCAGCCACUGUCAGAUUCUGGUGAAUCUGCGAAUUCUGCUGUAUAUCUG [A21U C39A C81G],0.34
9,UAACAGGGGGCCACAGCAGAUGCGUUCACGUCGCAGCCCCUGUCAGAUUCUGGUGAAUCUGCGGAUUCCGCUGUGUAUCUC [A21U A64G U69C A75G],0.06
10,UAACAGGGGGCCACAGCAGAUGCGCUCACGUCGCAGCCCCUGACAGAUUCUGGUGAAUCGGCGAAUUCUGCAGUAUAUCUC [A21U U25C U43A U60G U72A],0.11
11,UAACAGGGGGCCACAGCAGAUGCGUUCACAUCGCAGCCCCUGUCAGAUUCUGGUGAAGCUGCGAAUUCUGCUGUAUAUCAC [A21U G30A U58G U80A],0.08
12,UAACAGGGGGCCACAGCAGAUGCGUUCAUGUCGCAGCCCCUGUCAGAUUCUGGUGAAUCUGCGAAUUCUGCUGAAUAUCUC [A21U C29U U74A],0.26
13,UAACAGGGGGCCACAGCAGAUGCGUUCACAUCGCAGCCCCUGUCAGAUUCUGGCGAAUCUGCGAAUUCUGCUGUAUAUCUC [A21U G30A U54C],0
14,UAACAGGGGGCCACAGCAGAUGCGUUCACGUCGCAACCCCUGUCAGGUUCUGGUGAAUCUGCGAGUUCUGCUGUAUAUCUC [A21U G36A A47G A65G],0.07
15,UAACAGGGGGCCACAGCAGAUGCGUACACGUGGCAGCCUCUGACAGAUUCUGGUGAAUCUGCGAAUCCUGCUGUAUAUCUC [A21U U26A C32G C39U U43A U67C],0.01
16,UAACAGGGGGCCACAGCAGAUGCUUUCACGUCGCAGCCCCCGUCAGAUUCUGGUGAAACUGCGAAUUCUGCUGUAUAUCUC [A21U G24U U41C U58A],0.11
17,UAACAGGGGGCCACAGCAGAUGCGCUCACGUCGCAGCCCCUGUCAGAUUCUGGCGAAUCUGCGAAUUCUGCUGUAUAUCUC [A21U U25C U54C],0.16
